From US20250312473A1, “B7H3 ANTIBODY DRUG CONJUGATES” (BEONE MEDICINES I GMBH, priority 2022, published 2025) come the findings set out here.

The test deals with T1, ECD of human 4Ig-B7H3 (Homo sapiens, UniProt Q5ZPR3).
T1 construct: ECD of human 4Ig-B7H3 (Sinobiological, Cat: 11188-H08H); purchased Sinobiological 11188-H08H
T1 sequence (Q5ZPR3 29-466 limits assumed): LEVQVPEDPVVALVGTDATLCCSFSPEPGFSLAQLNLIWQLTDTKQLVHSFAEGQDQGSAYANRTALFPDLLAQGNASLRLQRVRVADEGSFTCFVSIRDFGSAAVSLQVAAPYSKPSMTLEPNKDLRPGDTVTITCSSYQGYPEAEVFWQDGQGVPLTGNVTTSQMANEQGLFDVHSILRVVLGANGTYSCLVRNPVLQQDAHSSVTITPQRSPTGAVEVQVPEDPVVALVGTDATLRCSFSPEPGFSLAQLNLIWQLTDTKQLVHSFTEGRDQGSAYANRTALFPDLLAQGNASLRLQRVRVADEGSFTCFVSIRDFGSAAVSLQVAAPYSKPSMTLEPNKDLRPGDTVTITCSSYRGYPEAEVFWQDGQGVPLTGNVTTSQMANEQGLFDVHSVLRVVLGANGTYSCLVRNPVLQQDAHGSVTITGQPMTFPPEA
Put plainly: SPR affinity determination. In kind it is binding. The settings on record: Test 1. The text has this: For affinity determination, antibodies were captured by anti-human Fc surface, and used in an affinity assay based on surface plasmon resonance (SPR) technology. The results of SPR-determined binding profiles of humanized antibodies to ECD of human 4Ig-B7H3 (Sinobiological, Cat: 11188-H08H) were summarized in Table 20.

B1: Chimeric BGA-3295: "Anti-Human B7H3 mAb BGA-3295", parent antibody with murine variable regions that was humanized (antibody, V domains shown)
VH: QIQVVQSGPELVKPGSLVKISCKASGYTFTNYDINWVKQRPGQGLEWIGWIYPGDGSAYYNEKFKGKATLTADKSSSTAYMQLSSLTSENSAVYFCARWGYGGVPFAYWGQGTLVTVSA
VL: DIVMTQSPSSLAMSVGQKVTMSCKSSQSLLNDINQKNYLAWYQQKPGQSPKLLVYFASTGVSGVPDRFIGSGSGTDFTLTVSSVQAEDLADYFCQQYYSFPWTFGGGTKLEIK
As a reminder, the koff is the rate constant with which the complex falls apart. A word on the kon: it is a measure of how fast the partners come together. Read a low kon as slower complex formation. As to B1, the “koff” value worked out at 0.000284 s⁻¹ and the on-rate (kon) is 720000 M⁻¹ s⁻¹.
